# Data published in the supplement of paper PMC3334620.
# Whole data set: some 33,000 sequences, median “E-score (-0.5 to 0.5)” near -0.011, cut for the highest 2% near 0.28. The list shows a part of the results.
# Target: T1, Gcr1 (UniProt P07261)
# T1 sequence: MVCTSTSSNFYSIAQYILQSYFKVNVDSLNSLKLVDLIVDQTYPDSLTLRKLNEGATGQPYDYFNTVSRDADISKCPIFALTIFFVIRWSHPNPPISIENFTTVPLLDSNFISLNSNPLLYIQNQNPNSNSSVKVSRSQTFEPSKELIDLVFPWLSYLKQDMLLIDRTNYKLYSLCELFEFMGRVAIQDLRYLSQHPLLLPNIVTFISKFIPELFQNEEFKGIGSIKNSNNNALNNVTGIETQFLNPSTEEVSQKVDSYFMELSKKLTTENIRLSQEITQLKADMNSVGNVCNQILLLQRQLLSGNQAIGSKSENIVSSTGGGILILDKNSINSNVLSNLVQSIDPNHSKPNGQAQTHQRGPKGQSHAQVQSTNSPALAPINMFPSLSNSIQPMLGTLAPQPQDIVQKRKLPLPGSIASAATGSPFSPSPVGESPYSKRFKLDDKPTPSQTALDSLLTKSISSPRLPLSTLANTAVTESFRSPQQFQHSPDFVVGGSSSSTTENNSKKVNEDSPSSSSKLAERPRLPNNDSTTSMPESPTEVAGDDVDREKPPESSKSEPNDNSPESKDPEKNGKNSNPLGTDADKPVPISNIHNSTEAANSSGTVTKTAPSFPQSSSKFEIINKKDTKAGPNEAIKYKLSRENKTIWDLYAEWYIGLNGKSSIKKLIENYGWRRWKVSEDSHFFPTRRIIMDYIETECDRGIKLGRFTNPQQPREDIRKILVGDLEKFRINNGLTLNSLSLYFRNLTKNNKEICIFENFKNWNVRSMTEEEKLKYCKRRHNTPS
# Assay: PBM E-score (8-mer binding enrichment) (E-score (-0.5 to 0.5)); higher = stronger / more preferred TF binding; most listed sequences are background and not binding sites
# Conditions: protein concentration: 100 nM; construct: GST-full length
# Procedure, shortened: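 The E-score, a modified Wilcoxon-Mann-Whitney statistic, was computed by the Universal PBM Analysis Suite for every ungapped eight-base word pooled with its reverse complement. Scans behind it were normalised with masliner after bound GST-tagged yeast transcription factors were detected with fluorescent anti-GST. The proteins, at about 100-200 nM, had been applied to universal all-10-mer Agilent arrays made double-stranded by primer extension.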
row,Sequence,PBM E-score
1,GATTCTAC,0.0244
2,ACGGAATC,0.234
3,AAAAGTCG,-0.0821
4,AACGCAAG,-8e-05
5,CAAGTCCA,-0.121
6,CGAATAAG,-0.129
7,CAACACGA,0.0495
8,CAACCCCC,-0.253
9,CGGCCCGA,-0.219
10,GCCTACGA,-0.0809
11,ACCACGCC,-0.223
12,TCGACCGA,-0.0136
13,GTATCGTA,0.118
14,GACAATCC,0.0226
15,TAAGTCAA,-0.193
16,CTTATAGA,0.214
17,ACCATTGA,0.173
18,AAGCAAGA,-0.0505
19,CCAAAAAC,0.217
20,AGATCTCG,-0.17
21,CACATTCA,-0.16
22,CAGACCGC,-0.0691
23,ACTATCAG,-0.119
24,AATCAGTC,0.0549
25,ATGCTAGC,0.0479

row,Sequence,PBM E-score
1,AGTACTGA,-0.0249
2,ACCGGGCG,-0.122
3,CAATTGGA,-0.0115
4,ATGGTTTC,0.0478
5,CTAATGGC,0.0834
6,AGCGTGCA,-0.0882
7,ATTCACTG,-0.0504
8,AAAACTCT,-0.158
9,CACTCGCA,-0.0706
10,ATAGGCCA,-0.307
11,CCCACAAC,0.102
12,CGGTGGGA,0.0886
13,CCCTGTAG,0.107
14,ATCTGAAA,-0.0813
15,AGACGTCC,-0.00119
16,GATACTGC,-0.205
17,CACCGGGG,-0.0978
18,TAGATAAA,0.0366
19,CACTCAAC,-0.132
20,GGTGGATA,-0.0366
21,ACGAAACG,-0.14
22,AGGTCCTG,0.0546
23,AGAGCTTC,0.267
24,AAACCACA,0.135
25,GACAAGTA,0.112

row,Sequence,PBM E-score
1,ACAAACCG,-0.121
2,CGCTCGAA,-0.237
3,CCGTTTTA,0.0582
4,CCAATTGG,0.0314
5,ACATAGTG,0.0378
6,GCTGCTTA,0.239
7,GACTAACC,-0.136
8,CAAGGGAG,-0.186
9,GCGGGAGC,0.0458
10,AAGCCGGT,0.0536
11,ATGTATGC,0.00976
12,CCGTACGC,-0.183
13,ATCCCCAT,0.203
14,CGTAGATC,-0.0785
15,ACTAGACA,0.0871
16,CCCCATCA,-0.0694
17,CAGCTATC,-0.147
18,ATCTAATA,0.0726
19,AAAGACTA,-0.11
20,CGTCCTAG,0.0236
21,AGCTTCGC,0.173
22,TATTGTGA,0.00375
23,AGAATAGG,0.153
24,ATGCAGCG,-0.132
25,AAAACGAC,0.0306

row,Sequence,PBM E-score
1,CCTGCCAG,-0.111
2,ACGTTCCG,-0.00756
3,GTTCCGGA,0.0744
4,ATGATCCG,-0.0492
5,AGTGGTAC,0.252
6,AGAGGATA,-0.0247
7,GCGACCCA,-0.0276
8,CTTTCCTC,0.0224
9,CCCAATCC,-0.0645
10,CCATCAGC,-0.0217
11,GGAGACAA,0.0568
12,CCAGGTTC,0.00618
13,AATCCTAT,-0.0573
14,GGCCAGCA,-0.034
15,CAAAGGTG,-0.0827
16,GCTGTGCA,-0.109
17,CCCCCCGC,-0.152
18,GGCAGGCC,-0.274
19,ACGCGAGC,-0.159
20,AGGCGCCT,0.321
21,ATGAGAAG,-0.0687
22,AGCTGTTG,-0.071
23,TCGAGTAA,0.088
24,CTTGGGTC,-0.0905
25,AGGCAATA,-0.118

row,Sequence,PBM E-score
1,TTGGAAAA,-0.138
2,GCAGTAGC,-0.066
3,AACGAATA,0.0819
4,CACCCTCG,0.0182
5,ACGGGGAT,0.0712
6,CAAACTGG,0.0331
7,GAGGTCCA,-0.0665
8,CACAGAAC,-0.177
9,GTGTCTCA,-0.121
10,CAGCCATA,0.022
11,CTAGGGAC,0.0174
12,AAGTCTGA,-0.0988
13,CGAGGCCG,-0.151
14,CACGTGTA,0.0946
15,CCACATGG,-0.0105
16,GACATCTA,0.127
17,AGTACGAC,-0.0576
18,AGGAGAAG,0.26
19,AGCCATTC,0.0765
20,CTTGTCAA,0.0358
21,AATAATAT,0.0273
22,AAAATAAT,0.186
23,CACCACGA,0.0795
24,AGACACAG,-0.0347
25,ACGGCATG,-0.302

row,Sequence,PBM E-score
1,CAGTATGA,0.0724
2,CGGTATGC,-0.186
3,GGAAGCTA,0.457
4,CTGGTTGA,-0.09
5,GACCTGTA,0.057
6,CCAATAAA,0.212
7,AGTAGCGA,-0.151
8,AGTCCGGA,0.0284
9,ATAAAGGA,0.0403
10,ACATTTGG,0.138
11,GTAGCTGA,-0.023
12,CGAAGGTA,-0.0866
13,GCACAGAC,0.00749
14,AGACACAT,-0.16
15,CCCCGTCG,0.00224
16,CTCGATAA,0.123
17,AAAAGAAC,-0.0325
18,ATTATTCC,0.103
19,ACTCACAT,-0.166
20,GTGCAAGA,-0.0182
21,ATGTGACG,-0.113
22,ACGCAGAC,-0.0874
23,ATGGGTGG,-0.0217
24,ACCGTTCA,-0.195
25,GCTGAGCA,-0.0824

row,Sequence,PBM E-score
1,GAGCGACA,-0.0391
2,CTTTAAGA,0.219
3,GAAAGTGC,0.0252
4,CACAGTAA,-0.0514
5,GTTAACCA,-0.014
6,GCCCGCCC,0.0747
7,GTGAACTA,0.0565
8,CTCTCGAA,-0.125
9,ACCTACGG,-0.27
10,AAAAATAC,0.0293
11,ACAAACTC,0.0236
12,GGATATGA,0.0405
13,CGGAAGAG,-0.141
14,GAGCGCAC,-0.133
15,GTCATATA,-0.00182
16,ATCAGGCC,-0.0847
17,GAATTTCC,0.082
18,AACTAGAC,0.0109
19,CGTATACG,0.229
20,AGCTCGAG,0.188
21,TGCCGCCA,-0.0269
22,GAAGGAAC,-0.0139
